In article PMC4336329 (PLoS ONE, 2015):
In all, about 310,000 compounds went through this assay and about 14,000 (4.5%) showed an effect of 50% or more. Effects have a minus sign here. This is one part of the list.

These compounds were tested against human ether-à-go-go-related gene (hERG) potassium channel (human, UniProt Q12809) (assay: primary screen, population patch clamp on CHO cells stably expressing hERG).
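Note: peak tail current of the secondary pulse compared with the same well before compound.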

human ether-à-go-go-related gene (hERG) potassium channel, sequence (Q12809 whole entry, looked up): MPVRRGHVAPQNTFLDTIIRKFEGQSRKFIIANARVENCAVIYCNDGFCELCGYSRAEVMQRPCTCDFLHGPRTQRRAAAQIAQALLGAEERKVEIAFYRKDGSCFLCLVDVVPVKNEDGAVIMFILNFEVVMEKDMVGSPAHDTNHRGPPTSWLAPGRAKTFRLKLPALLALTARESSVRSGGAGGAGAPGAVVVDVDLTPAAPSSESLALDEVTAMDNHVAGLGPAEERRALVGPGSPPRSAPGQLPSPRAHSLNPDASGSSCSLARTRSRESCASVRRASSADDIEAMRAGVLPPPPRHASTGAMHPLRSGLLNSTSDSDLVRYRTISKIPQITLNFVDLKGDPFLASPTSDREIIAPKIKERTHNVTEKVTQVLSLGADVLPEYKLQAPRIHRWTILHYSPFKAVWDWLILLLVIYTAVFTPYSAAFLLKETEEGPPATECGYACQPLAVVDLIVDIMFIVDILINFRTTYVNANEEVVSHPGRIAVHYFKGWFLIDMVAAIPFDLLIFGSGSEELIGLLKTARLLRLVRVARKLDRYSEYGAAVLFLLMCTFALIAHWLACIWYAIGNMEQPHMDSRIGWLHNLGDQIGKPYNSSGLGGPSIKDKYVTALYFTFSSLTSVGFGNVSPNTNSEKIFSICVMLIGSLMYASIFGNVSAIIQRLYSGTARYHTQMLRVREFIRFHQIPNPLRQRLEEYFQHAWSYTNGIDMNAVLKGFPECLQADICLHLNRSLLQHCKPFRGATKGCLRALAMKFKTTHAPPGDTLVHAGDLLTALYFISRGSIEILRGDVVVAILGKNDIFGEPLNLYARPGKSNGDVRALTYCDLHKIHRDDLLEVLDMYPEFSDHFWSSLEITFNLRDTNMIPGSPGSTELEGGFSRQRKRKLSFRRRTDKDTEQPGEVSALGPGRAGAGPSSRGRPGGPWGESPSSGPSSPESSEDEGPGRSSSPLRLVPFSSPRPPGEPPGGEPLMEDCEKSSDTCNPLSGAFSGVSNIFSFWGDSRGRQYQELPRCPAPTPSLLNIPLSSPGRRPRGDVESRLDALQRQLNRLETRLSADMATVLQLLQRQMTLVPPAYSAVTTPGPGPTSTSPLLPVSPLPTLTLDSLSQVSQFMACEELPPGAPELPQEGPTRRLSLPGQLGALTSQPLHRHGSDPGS

With `Cn1c(C(=O)N2CCN(c3ccccn3)CC2)cc2ccccc21` as the compound, how does the “hERG current change (%, negative = inhibition) at 10uM” value read?
The value was -18.5%.

Which “hERG current change (%, negative = inhibition) at 10uM” value does the source give for `CCC1(c2ccc(Cl)cc2)NC(=S)N(c2ccc(C)c(C)c2)N1` (centres unmarked) here?
The value was 5.54%.

`CCOc1cc(/C=N/NC(=O)c2ccccc2OCc2ccc(F)cc2)ccc1O` was tested. Which “hERG current change (%, negative = inhibition) at 10uM” value did it give?
Its value is -2.93%.

For `O=C(NCc1ccccc1)C1CCN(S(=O)(=O)c2ccc(N3CCCC3=O)cc2)CC1`, which “hERG current change (%, negative = inhibition) at 10uM” value is on record?
Its value is 0.265%.

`CN(C(=O)c1ccc(Cl)c([N+](=O)[O-])c1)C1(C)CCS(=O)(=O)C1` (centres unmarked) was tested. Which “hERG current change (%, negative = inhibition) at 10uM” value did it give?
The value was -10.9%.

Which “hERG current change (%, negative = inhibition) at 10uM” value does the source give for `O=C(NCc1cccs1)C(=O)c1cn(CC(=O)N2CCOCC2)c2ccccc12` here?
Its value is 19.3%.

`CC(C)(C)n1nnnc1C(c1ccncc1)N1CCN(C2CCCCC2)CC1` (centres unmarked) was tested. Which “hERG current change (%, negative = inhibition) at 10uM” value did it give?
The value was -4.67%.

With `CCOC(=O)N1CCN(C(=O)CSc2nc3ccccc3c(=O)n2-c2ccccc2)CC1` as the compound, how does the “hERG current change (%, negative = inhibition) at 10uM” value read?
The value was -28.4%.

`CCN(Cc1cc(OC)c(OC)c(OC)c1)C(=S)Nc1cccc(SC)c1` was tested. Which “hERG current change (%, negative = inhibition) at 10uM” value did it give?
Its value is -17.7%.

For `CC(C)CN(C(=O)CSc1ncnc2ccccc12)C1CCS(=O)(=O)C1` (centres unmarked), which “hERG current change (%, negative = inhibition) at 10uM” value is on record?
Its value is -5.62%.

For `COc1ccc(N2C(=O)C(F)(F)C2c2cccc(F)c2)cc1` (centres unmarked), which “hERG current change (%, negative = inhibition) at 10uM” value is on record?
The value was 17.3%.

How did the “hERG current change (%, negative = inhibition) at 10uM” value turn out when `O=C(C1CCC1)N1CCN(c2ccnc3cc(Cl)ccc23)CC1` was run?
The value was -71.4%.

Which “hERG current change (%, negative = inhibition) at 10uM” value does the source give for `CSc1ncccc1C(=O)N1CCCC(N2CCN(c3ccccc3F)CC2)C1` (centres unmarked) here?
The value was -12.4%.

`Clc1ccc(CSc2nnc(-c3ccc4c(c3)OCO4)o2)cc1` was tested. Which “hERG current change (%, negative = inhibition) at 10uM” value did it give?
The value was 4.16%.

With `O=S(=O)(c1ccccc1)c1cnc(-c2cccnc2)nc1-c1ccc(Cl)c(Cl)c1` as the compound, how does the “hERG current change (%, negative = inhibition) at 10uM” value read?
Its value is -2.3%.

How did the “hERG current change (%, negative = inhibition) at 10uM” value turn out when `O=C(Nc1ccc(S(=O)(=O)Nc2nccs2)cc1)C(F)(F)F` was run?
The value was 5.9%.

Which “hERG current change (%, negative = inhibition) at 10uM” value does the source give for `Cc1ccc(C(=O)Nc2ccc(Cl)cc2C(=O)c2ccccc2)cc1` here?
Its value is 17.1%.

`COc1cccc(CNC(=O)CCS(=O)(=O)c2ccc3c(c2)CC(C)N3C(=O)C2CC2)c1` (centres unmarked) was tested. Which “hERG current change (%, negative = inhibition) at 10uM” value did it give?
The value was -32.4%.

`COc1cccc(N(CC(=O)NCc2ccco2)C(=O)CCC(=O)Nc2nccs2)c1` was tested. Which “hERG current change (%, negative = inhibition) at 10uM” value did it give?
Its value is 1.6%.

How did the “hERG current change (%, negative = inhibition) at 10uM” value turn out when `COc1ccc(-n2ccn(CC(=O)Nc3ccccc3OC)c(=O)c2=O)cc1` was run?
The value was 10.9%.

Which “hERG current change (%, negative = inhibition) at 10uM” value does the source give for `Cc1ccc(-n2nc(C)c3c2NC(=O)CSC3c2ccc3c(c2)OCO3)cc1` (centres unmarked) here?
The value was 5.05%.

Which “hERG current change (%, negative = inhibition) at 10uM” value does the source give for `COc1ccc(CCNC(=O)CCCn2c(SCC(N)=O)nc3cc4c(cc3c2=O)OCO4)cc1OC` here?
The value was 10.3%.

`CCOC(=O)C1Cc2ccccc2CN1.Cl` (centres unmarked) was tested. Which “hERG current change (%, negative = inhibition) at 10uM” value did it give?
Its value is 1.73%.
